This is an account of results in publication PMC7725785 (2020).

In assay [1] the target is T1, Purified His-tagged MYC (human, UniProt P01106). As to the kind of experiment: SPR; control (CTRL, without TRIB3).
Assay [2] has as its target T1, Purified His-tagged MYC. As to the kind of experiment: SPR; with TRIB3.
The target of assay [3] is T1, Purified His-tagged MYC. As to the kind of experiment: SPR; control (CTRL, without TRIB3). The source holds these as a separate data set.
Assay [4] deals with T1, Purified His-tagged MYC. As to the kind of experiment: SPR; with TRIB3. This is another data set of the same source.

T1 sequence (P01106 whole entry): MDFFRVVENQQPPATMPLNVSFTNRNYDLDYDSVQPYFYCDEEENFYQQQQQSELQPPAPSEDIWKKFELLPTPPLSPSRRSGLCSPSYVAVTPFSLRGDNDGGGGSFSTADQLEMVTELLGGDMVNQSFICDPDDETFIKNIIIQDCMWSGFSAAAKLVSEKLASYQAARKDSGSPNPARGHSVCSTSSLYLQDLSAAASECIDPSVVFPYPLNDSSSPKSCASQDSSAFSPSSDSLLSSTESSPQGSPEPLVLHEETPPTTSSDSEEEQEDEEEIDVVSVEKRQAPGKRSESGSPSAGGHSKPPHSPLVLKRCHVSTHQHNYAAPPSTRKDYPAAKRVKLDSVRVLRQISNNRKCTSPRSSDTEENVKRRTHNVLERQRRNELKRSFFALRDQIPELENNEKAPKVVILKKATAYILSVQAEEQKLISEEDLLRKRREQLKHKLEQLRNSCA

B1: MAX protein (SPR) (natural protein)
chain: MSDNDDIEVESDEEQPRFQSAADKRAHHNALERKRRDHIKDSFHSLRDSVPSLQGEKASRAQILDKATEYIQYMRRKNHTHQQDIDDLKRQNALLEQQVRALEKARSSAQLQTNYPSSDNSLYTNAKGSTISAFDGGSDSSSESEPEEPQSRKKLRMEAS
On to B1, for which the dissociation constant (Kd) with Purified His-tagged MYC [1] came out at 2.03 nM; with Purified His-tagged MYC [2], 0.178 nM. Moreover, the koff amounted to 0.0143 s⁻¹ in the assay with Purified His-tagged MYC [3] and 0.000205 s⁻¹ with Purified His-tagged MYC [4].
